Experimental data: PubChem BioAssay AID504332 (National Center for Advancing Translational Sciences (NCATS), 2011)
The whole screen tested about 350,000 compounds, of which about 31,000 (8.9%) were called active. This list was built around the results that the source calls inconclusive (neither active nor inactive); the mix of calls is not that of the screen. Calls come from the whole dose curve; as a rule, active = well fitted inhibition curve with a large enough effect; inconclusive = small, poorly fitted or top-dose-only effect; inactive = no such curve, though single readings can be large or run the other way. A potency beside an inconclusive call is a rough fit, not a confirmed value.

Biological target: Histone-lysine N-methyltransferase EHMT2 (Homo sapiens) (UniProt Q96KQ7)
Sequence of UniProt Q96KQ7 (Q96KQ7 whole entry, looked up): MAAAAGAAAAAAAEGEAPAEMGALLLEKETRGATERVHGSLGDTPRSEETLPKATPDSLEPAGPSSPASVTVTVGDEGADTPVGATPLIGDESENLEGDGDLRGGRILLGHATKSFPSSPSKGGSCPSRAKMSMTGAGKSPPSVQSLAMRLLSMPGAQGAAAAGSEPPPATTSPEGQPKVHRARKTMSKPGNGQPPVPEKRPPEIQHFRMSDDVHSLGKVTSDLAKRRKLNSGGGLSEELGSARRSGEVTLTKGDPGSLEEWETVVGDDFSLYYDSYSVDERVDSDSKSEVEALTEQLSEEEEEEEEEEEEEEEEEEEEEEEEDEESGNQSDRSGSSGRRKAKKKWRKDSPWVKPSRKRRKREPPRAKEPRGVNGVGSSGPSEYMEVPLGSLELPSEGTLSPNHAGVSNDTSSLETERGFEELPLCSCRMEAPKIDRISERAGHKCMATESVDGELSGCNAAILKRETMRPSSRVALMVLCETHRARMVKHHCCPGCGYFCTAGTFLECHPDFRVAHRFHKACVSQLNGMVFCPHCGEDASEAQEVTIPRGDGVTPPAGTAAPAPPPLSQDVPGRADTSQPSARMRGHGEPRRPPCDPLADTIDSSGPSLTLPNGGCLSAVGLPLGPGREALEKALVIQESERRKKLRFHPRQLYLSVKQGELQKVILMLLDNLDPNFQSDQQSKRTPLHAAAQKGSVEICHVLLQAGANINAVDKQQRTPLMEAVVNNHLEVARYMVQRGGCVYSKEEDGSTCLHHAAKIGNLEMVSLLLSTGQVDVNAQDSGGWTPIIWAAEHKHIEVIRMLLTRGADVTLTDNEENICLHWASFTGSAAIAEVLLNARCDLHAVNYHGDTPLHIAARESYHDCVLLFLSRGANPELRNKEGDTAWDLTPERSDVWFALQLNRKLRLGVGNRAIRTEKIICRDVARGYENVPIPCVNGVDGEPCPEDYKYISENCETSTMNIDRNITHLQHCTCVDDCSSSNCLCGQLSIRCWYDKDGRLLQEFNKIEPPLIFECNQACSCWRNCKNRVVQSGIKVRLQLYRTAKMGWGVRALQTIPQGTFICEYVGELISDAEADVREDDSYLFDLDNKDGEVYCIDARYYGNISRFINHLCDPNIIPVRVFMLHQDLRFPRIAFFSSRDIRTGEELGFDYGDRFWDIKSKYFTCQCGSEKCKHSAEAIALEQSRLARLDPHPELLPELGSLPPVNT
Experiment: qHTS Assay for Inhibitors of Histone Lysine Methyltransferase G9a; note: nearly all actives have a fitted effect of over 75% in size
Settings: G9a H3K9 monomethylation, AlphaScreen, 2 h; activity, negative = inhibition: at 59 µM (top of the series) unless noted
Procedure, shortened: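 Step 1: enzyme (final 20 nM) with compound, 15 min RT. Step 2: substrate peptide 500 nM and SAM 20 uM, 2 h RT. Step 3: anti-H3K9me1 antibody and AlphaScreen beads, 10 min, then plate read.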
% is set by controls: 0 for no effect and ±100 for the full control effect; potency is the fitted concentration of half-maximal effect; tags give direction and shape of the fitted curve.

Row | Structure (SMILES) | activity, negative = inhibition | Potency
1 | COc1cc(-c2nn3c(Cc4ccccc4)nnc3s2)cc(OC)c1OC | inconclusive: -97.7% [inhibitor] | –
2 | COc1cc(OC)c(C(=O)Nc2cc(Cl)ccc2-n2cncn2)cc1OC | – | inconclusive: 50.1 µM [inhibitor, partial curve]
3 | O=S(=O)(Nc1ccccc1N1CCCCC1)c1ccc(Cl)s1 | inactive: -9.87% [at 102 µM] | –
4 | CC(=O)Nc1nc2cc3c(cc2s1)OCO3 | inactive: 18.4% [at 102 µM] | –
5 | Cc1cnc(C(=O)OCC(=O)Nc2ccc(C)c(S(=O)(=O)N3CCCCCC3)c2)cn1 | – | inconclusive: 7.94 µM [inhibitor, partial curve, poor fit]
6 | CN(CC(=O)Nc1ccc(Cl)cc1)CC(=O)Nc1cccc(Br)c1 | – | active: 44.7 µM
7 | N/C(=N\NC(=O)c1ccc(Cl)cc1)c1cnccn1 | – | inconclusive: 2 µM [inhibitor, full curve, poor fit]
8 | CC(NC(=O)Cc1ccc(S(=O)(=O)N2CCCCC2)cc1)c1ccccc1 (centres undefined) | – | inconclusive: 39.8 µM [inhibitor, single point]
9 | CCCCCn1c(SCCC(C)C)nc2c1c(=O)[nH]c(=O)n2C | – | active: 10 µM
10 | O=C1NC2(CCCCCC2)C(=O)N1Cc1ccccc1Br | inactive: -1.59% [at 102 µM] | –
11 | CCn1c(-c2cc(-c3ccc(OC(C)C)cc3)nc3ccccc23)n[nH]c1=S | – | active: 28.2 µM
12 | CCc1ccccc1NC(=O)CSc1nnc(-c2cc(OC)c(OC)c(OC)c2)o1 | inactive: -6.02% | –
13 | CCOC(=O)/C(C#N)=N/Nc1ccccc1OC | – | inconclusive: 3.16 µM [inhibitor, single point]
14 | COc1cc2c(c(OC)c1OC)C(c1ccccc1C)CC(=O)O2 (centres undefined) | – | inconclusive: 28.2 µM [inhibitor, partial curve]
15 | O=C(c1cc2cc(Br)ccc2o1)N1CCOCC1 | inactive: 15.4% [at 102 µM] | –
16 | O=C(Nc1ccc(N2CCN(Cc3ccccc3Cl)CC2)cc1)c1cccnc1 | – | inconclusive: 63.1 µM [inhibitor, single point]
17 | CCn1c(=S)[nH]c2cc(S(=O)(=O)N3CCCCC3)ccc21 | – | inconclusive: 2.24 µM [inhibitor, partial curve, poor fit]
18 | COc1ccc(C(=O)Nc2ccc(OCC(=O)N3CCOCC3)cc2)c(OC)c1OC | – | inconclusive: 56.2 µM [inhibitor, partial curve]
19 | CCN(CCCNc1ncnc2nc[nH]c12)c1cccc(C)c1 | – | active: 17.8 µM
20 | [O-]/[N+](=C\c1ccncc1)c1ccccc1 | inconclusive: -67.2% [inhibitor] | –
21 | COc1ccccc1N1CCN(/N=C/c2cc(OC)c(OC)c(OC)c2)CC1 | – | inconclusive: 70.8 µM [inhibitor, single point]
22 | COc1ccc(N2CCN(CC(O)COc3ccccc3C(C)(C)C)CC2)cc1 (centres undefined) | – | active: 11.2 µM
23 | Cc1cccc(C(=O)Nc2ccc(-c3nc4ccccc4s3)c(C)c2)c1 | inactive: 10.3% | –

Row | Structure (SMILES) | activity, negative = inhibition | Potency
24 | O=C(NC(=S)N1CCCc2ccccc21)c1ccc(Cl)cc1 | – | inconclusive: 11.2 µM [inhibitor, partial curve, poor fit]
25 | CCCCn1c(N)c(N(CCC(C)C)C(=O)c2ccc(C)c(S(=O)(=O)N3CCOCC3)c2)c(=O)[nH]c1=O | – | inconclusive: 79.4 µM [inhibitor, partial curve, poor fit]
26 | COc1ccc(N2CCN(CCNS(=O)(=O)c3ccc(C)cc3)CC2)cc1 | – | active: 50.1 µM
27 | N#C/C(=C/c1ccccc1)C(=O)NCc1ccccc1 | inactive: -7.75% | –
28 | CC(=O)OCC1OC(Sc2cccc3cccnc23)C(OC(C)=O)C(OC(C)=O)C1OC(C)=O (centres undefined) | inactive: 17.8% | –
29 | COc1cccc(NC(=O)CNS(=O)(=O)c2ccc3nc(C)sc3c2)c1 | – | inconclusive: 56.2 µM [inhibitor, partial curve, poor fit]
30 | O=C(CN1C(=O)c2cccc3cccc1c23)N1CCN(Cc2ccc3c(c2)OCO3)CC1 | – | inconclusive: 22.4 µM [inhibitor, partial curve, poor fit]
31 | Cc1ccc(C)c(N2CCN(C(=O)c3cccc(-n4c(C)nc5cccnc54)c3)CC2)c1 | – | inconclusive: 7.94 µM [inhibitor, partial curve, poor fit]
32 | Cc1ccc(CC(=O)N(Cc2nc(-c3ccc(C)cc3)no2)C(C)C)cc1 | inactive: 10.5% | –
33 | Cc1nn(-c2ccccc2)c(OC(=O)c2ccc(Br)cc2)c1S(=O)(=O)c1ccccc1 | – | inconclusive: 25.1 µM [inhibitor, partial curve, poor fit]
34 | Cc1cccc2cc(CN(CCCN3CCOCC3)Cc3nnnn3C(C)(C)C)c(=O)[nH]c12 | inconclusive: -57.9% [inhibitor] | –
35 | CCOCCCNC(=O)c1cnc2sc(N3CCCCCC3)nn2c1=O | inactive: 10.6% | –
36 | Cc1nccn1CCC(=O)O | – | inconclusive: 39.8 µM [inhibitor, single point]
37 | CCOc1ccc(NC(=O)Cn2c(=O)n(CCc3ccccc3)c(=O)c3c4c(sc32)CN(C(C)=O)CC4)cc1 | inactive: 15.1% | –
38 | COc1ccc(C2C3=C(CCCC3=O)Nc3ccc4ncccc4c32)cc1OC (centres undefined) | – | active: 50.1 µM
39 | COc1ccc(OC)c(NC(=O)CN2C(=O)CC(c3ccco3)Sc3ccccc32)c1 (centres undefined) | – | inconclusive: 25.1 µM [inhibitor, single point]
40 | CN(C)c1ccc(C2C3C(=O)N(c4ccc(C(=O)O)cc4)C(=O)C3ON2c2ccccc2)cc1 (centres undefined) | inconclusive: -67.9% [inhibitor] | –
41 | COc1ccc2c(c1)c1c(c(=O)n(-c3ccccc3C)c(=O)n1Cc1ccccc1C)n2C | – | inconclusive: 8.91 µM [inhibitor, partial curve, poor fit]
42 | CC(=O)C1=C(C)N(Cc2ccco2)C(=O)C1(NC(=O)C1CCCCC1)C(F)(F)F (centres undefined) | – | inconclusive: 89.1 µM [inhibitor, partial curve, poor fit]
43 | Cc1cc2nn(-c3ccc(Cl)cc3)nc2cc1NC(=O)C(C)C | – | inconclusive: 10 µM [inhibitor, full curve, poor fit]
44 | CCOc1ccc(OCCC(=O)OCC(=O)NNC(=O)c2ccccc2)cc1 | – | inconclusive: 89.1 µM [inhibitor, single point]
45 | COc1cc2c(cc1OC)C(/C(C#N)=N\O)=NC(C)(C)C2 | – | active: 11.2 µM
46 | COc1cc(NC(=O)COc2ccc(-n3ccnc3)cc2)cc(OC)c1 | – | inconclusive: 56.2 µM [inhibitor, partial curve, poor fit]

Row | Structure (SMILES) | activity, negative = inhibition | Potency
47 | O=C(NCC1CCCO1)c1cc2nc(-c3ccco3)cc(C(F)(F)Cl)n2n1 (centres undefined) | – | inconclusive: 56.2 µM [inhibitor, partial curve, poor fit]
48 | CCOC(=O)Cc1csc(Nc2c(C)n(C)n(-c3ccccc3)c2=O)n1 | – | inconclusive: 89.1 µM [inhibitor, partial curve, poor fit]
49 | COc1ccc(CN(C(=O)c2ccc(-c3ccccc3)[nH]2)C(C(=O)NC(C)(C)C)c2ccncc2)cc1 (centres undefined) | – | inconclusive: 31.6 µM [inhibitor, single point]
50 | COCCCN1C(=O)C(=O)/C(=C(/O)c2ccc(C)cc2)C1c1ccccc1 (centres undefined) | – | active: 50.1 µM
51 | CCOC(=O)c1ccc2c(c1)[nH]c(=S)n2CC | – | inconclusive: 15.8 µM [inhibitor, partial curve]
52 | Cn1nc(C(=O)N2CCN(c3ccccc3)CC2)c2c1-c1ccccc1SC2 | – | active: 15.8 µM
53 | CCOc1ccc(NC(=O)c2cccc3c2C(=O)N(Cc2cccnc2)C3)cc1 | – | inconclusive: 44.7 µM [inhibitor, partial curve, poor fit]
54 | O=C(c1ccc2c(c1)OCO2)c1cn(Cc2ccc(F)cc2)c2ccccc2c1=O | inactive: -27.7% | –
55 | CN(C1CCCC1)C1CCN(C(=O)CNC(=O)/C=C/c2cccc(C(F)(F)F)c2)CC1 | – | inconclusive: 20 µM [inhibitor, partial curve, poor fit]
56 | Cc1c(-n2cc(C(=O)O)c(=O)c3cc(F)c(N4CCCC4)c(F)c32)c(=O)n(-c2ccccc2)n1C | – | active: 56.2 µM
57 | O=S(=O)(CCc1ccncc1)C1Cc2cccc3cccc1c23 (centres undefined) | – | inconclusive: 56.2 µM [inhibitor, partial curve, poor fit]
58 | Cc1ccc(NC(=S)N(CCCN2CCN(C)CC2)Cc2cccs2)cc1C | – | inconclusive: 39.8 µM [inhibitor, partial curve]
59 | COc1ccc(C(=O)/C=C/c2ccc(N3CCCCC3)c([N+](=O)[O-])c2)cc1 | – | active: 10 µM
60 | COc1cc(OC)c(C2C=C(C(=O)O)Nc3ncnn32)cc1OC (centres undefined) | – | inconclusive: 11.2 µM [inhibitor, partial curve, poor fit]
61 | COc1ccc(S(=O)(=O)NCc2cn3c(C)csc3n2)cc1F | – | inconclusive: 35.5 µM [inhibitor, partial curve, poor fit]
62 | CC(=O)c1cccc(-n2c(=O)c3c4c(sc3n(Cc3ccccc3Cl)c2=O)CN(C(C)=O)CC4)c1 | inactive: -5.06% | –
63 | CCOc1ccccc1/C=N/n1c(COc2ccccc2)n[nH]c1=S | – | active: 14.1 µM
64 | CC(C(=O)OCn1nnc2ccccc2c1=O)N1C(=O)c2ccccc2C1=O (centres undefined) | – | inconclusive: 89.1 µM [inhibitor, partial curve, poor fit]
65 | COc1ccc(NC(=O)c2sc3ncn(CC(=O)N4CCCCC4)c(=O)c3c2C)cc1OC | – | inconclusive: 89.1 µM [inhibitor, single point]
66 | Cc1cc(NC(=O)c2ccoc2C)no1 | – | active: 5.01 µM
67 | Cc1ccnc(SCc2cn3c(C)cc(C)nc3n2)n1 | – | inconclusive: 39.8 µM [inhibitor, partial curve]
68 | CC12CCC(C(=O)N3CCN(Cc4ccccc4)CC3)(OC1=O)C2(C)C (centres undefined) | inactive: -0.309% [at 102 µM] | –
69 | CCOc1cc(C(=O)N2CCc3cc(OC)c(OC)cc3C2)ccc1OC(F)F | – | inconclusive: 20 µM [inhibitor, partial curve, poor fit]
